The list shows a part of the results. At the low end of the ranking the order means little.

In the experiment the target is T1, GST-Rok-C97-191 (UniProt O34857).
T1 sequence: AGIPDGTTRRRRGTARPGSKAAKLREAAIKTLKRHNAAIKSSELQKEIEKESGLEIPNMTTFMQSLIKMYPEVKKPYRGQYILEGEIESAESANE
The experiment is described as follows: protein binding microarray.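 Further: rank score from −0.5 (least bound) to 0.5 (best bound).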 The settings on record: Rok is a gene silencer of Bacillus subtilis; high values mean tight binding; most listed sequences are background and not binding sites; double strand, one strand shown.
Sequence CCATACCA yielded a binding signal of 0.0276 E-score.

TAATCGTA yielded a binding signal of 0.126 E-score.

With AACACATC, the binding signal is -0.0947 E-score.

For CATCCTAG, the binding signal was -0.147 E-score.

The sequence ATAGTGAC had a binding signal of 0.0622 E-score.

Regarding CCTTTGCA, the binding signal was -0.141 E-score.

CAGTGGGG gave a binding signal of -0.274 E-score.

As for GGGAATCA, the binding signal was -0.102 E-score.

In turn, AGGCACTA gave a binding signal of -0.129 E-score.

In turn, CAGAATCG had a binding signal of -0.0227 E-score.

For AGCGGAGC, the binding signal was -0.153 E-score.

CGGCGACA showed a binding signal of -0.294 E-score.

Sequence CGTCGAAA returned a binding signal of 0.106 E-score.

For CTTCGTGC, the binding signal is -0.109 E-score.

Regarding GAATTCTC, the binding signal was 0.0595 E-score.

For ATATCGAT, the binding signal stood at 0.297 E-score.

As for CTTGGCGC, the binding signal was -0.298 E-score.

The sequence GTGGGGTA came in with a binding signal of -0.0745 E-score.

In turn, CAAGTCGA returned a binding signal of -0.137 E-score.

Consider AGTTGGCG, for which the binding signal was -0.123 E-score.

As for CTATTCAC, the binding signal was found to be 0.0435 E-score.

With CTGGTGTA, the binding signal was -0.103 E-score.

As to CCAGATCG, the binding signal is -0.208 E-score.

For the sequence AGCTTGAG, the binding signal was -0.0747 E-score.

GCGCCCGA yielded a binding signal of -0.239 E-score.

As for GTTTAGCA, the binding signal is -0.0989 E-score.

The sequence ACAAGCAC registered a binding signal of 0.019 E-score.

The sequence AAATCTGA showed a binding signal of 0.0714 E-score.

Take GGGCTAAA: the binding signal is 0.0429 E-score.

In turn, GATACCTA showed a binding signal of 0.32 E-score.

Regarding CGCCGGCA, the binding signal was -0.274 E-score.

Regarding TATTTCCA, the binding signal came to 0.228 E-score.

AAAAAACT gave a binding signal of 0.196 E-score.

CGAGCTTC gave a binding signal of -0.236 E-score.

With AGGGAGCA, the binding signal is -0.177 E-score.

As for GAGCTAGC, the binding signal is 0.0567 E-score.

With AACGCTGG, the binding signal was -0.171 E-score.

With TCGCTAGA, the binding signal came out at 0.16 E-score.

Sequence GGTCTGGA yielded a binding signal of -0.12 E-score.

Sequence AGAGGGCA had a binding signal of -0.198 E-score.

AACGCCGA returned a binding signal of -0.144 E-score.

GCTCATCA gave a binding signal of -0.0849 E-score.

The sequence TCAGGGCA returned a binding signal of -0.0631 E-score.

The sequence AATGCGAG had a binding signal of 0.0809 E-score.

Take AGGTATTA: the binding signal was found to be 0.201 E-score.

In turn, ACTCGCGA registered a binding signal of 0.0858 E-score.

On to AGCAAGAT, for which the binding signal turned out to be 0.0224 E-score.

In the case of AAGCAGCG, the binding signal is -0.259 E-score.

In turn, ATCCGACA came in with a binding signal of 0.0458 E-score.

The sequence AATTCGCC displayed a binding signal of 0.0105 E-score.

Sequence AAATTTTA had a binding signal of 0.374 E-score.

Sequence CGCGCGAC gave a binding signal of 0.00307 E-score.

In turn, TACCCCAA displayed a binding signal of 0.0587 E-score.

Take AAAGAGAT: the binding signal amounted to 0.0526 E-score.

CGTGAGTC showed a binding signal of -0.19 E-score.

As for ATCATGGG, the binding signal was -0.118 E-score.

Take ACACTGTG: the binding signal amounted to 0.161 E-score.

Regarding ACCACCGT, the binding signal is -0.0734 E-score.

Turning to CATGGTGA, the binding signal worked out at 0.0231 E-score.

Sequence CTCGTAAC yielded a binding signal of 0.0109 E-score.

GATATTAC: the binding signal was 0.328 E-score.

In the case of AGTTGGGG, the binding signal was -0.12 E-score.

AAGCTCAG gave a binding signal of -0.0431 E-score.

Take AAGACTCC: the binding signal was -0.0595 E-score.

TACTCGGA gave a binding signal of -0.00726 E-score.

GTCTCCAA: the binding signal was -0.229 E-score.

With CTTCGCAA, the binding signal was -0.12 E-score.

In the case of AGCGATAG, the binding signal stood at 0.03 E-score.

As to AGTGCCAA, the binding signal is 0.0368 E-score.

CCCCGAAC registered a binding signal of -0.298 E-score.

Take TCCGCGGA: the binding signal stood at 0.00675 E-score.

As for AAATTGAT, the binding signal was 0.0406 E-score.

Consider ATGGCCGC, for which the binding signal was -0.305 E-score.

Sequence AAACCCAA returned a binding signal of 0.0303 E-score.

In turn, GAAGGCCC had a binding signal of -0.346 E-score.

In the case of CCCCCTAC, the binding signal was -0.329 E-score.

As to CGTAACGA, the binding signal was found to be 0.0667 E-score.

Regarding GCTGTGCC, the binding signal is -0.166 E-score.

Sequence CTCCAGCC had a binding signal of -0.0781 E-score.

In turn, AGTGTGGA showed a binding signal of -0.0965 E-score.

ACGAAAGC yielded a binding signal of -0.163 E-score.

In the case of GGTAATTA, the binding signal worked out at 0.395 E-score.

TCCATACA gave a binding signal of 0.0803 E-score.

CGTTCGCA returned a binding signal of -0.219 E-score.

TCTTCAAA: the binding signal was 0.0119 E-score.

On to AGCCGTAG, for which the binding signal turned out to be 0.0411 E-score.

Consider ATCCTAGG, for which the binding signal was -0.0974 E-score.

The sequence AGAGTATC came in with a binding signal of -0.0662 E-score.

Consider AACCCCCT, for which the binding signal was -0.308 E-score.

ATCTCGTG returned a binding signal of -0.163 E-score.

ATCCAGCC displayed a binding signal of -0.213 E-score.

In the case of CTTGATGA, the binding signal is -0.166 E-score.

With CCCCGGAG, the binding signal was -0.378 E-score.

As to GTAAGCTA, the binding signal was determined as 0.149 E-score.

CTCATATA: the binding signal came out at 0.181 E-score.

ACCCGCAG displayed a binding signal of -0.149 E-score.

Consider GAACCACC, for which the binding signal was 0.0125 E-score.

Consider AGCATCAC, for which the binding signal was -0.0613 E-score.

GACCCGGC had a binding signal of -0.278 E-score.

AATGGAAT: the binding signal was -0.0573 E-score.

The sequence TCTCGGAA registered a binding signal of 0.127 E-score.

Sequence AGCGGAAA gave a binding signal of 0.118 E-score.

The sequence GATCAGGC gave a binding signal of -0.106 E-score.

AATGCGGC: the binding signal stood at 0.0769 E-score.

Consider CGACTGTC, for which the binding signal was -0.12 E-score.

Take AAGCCGAA: the binding signal was -0.0917 E-score.

Turning to CCAGGCAA, the binding signal was -0.149 E-score.

On to CGGTGGGA, for which the binding signal is -0.129 E-score.

CTTAGCAC yielded a binding signal of 0.0243 E-score.

For ATAACAGA, the binding signal was -0.0541 E-score.

Consider ACTCAAGA, for which the binding signal is -0.0762 E-score.

Consider ACGTTATA, for which the binding signal stood at 0.17 E-score.

Sequence AGTTAGGG yielded a binding signal of -0.0845 E-score.

GCTTGGCA gave a binding signal of -0.0903 E-score.

The sequence ATTACGCA displayed a binding signal of 0.139 E-score.

Sequence CTATTGGC showed a binding signal of -0.0724 E-score.

In turn, AAGTGATC returned a binding signal of -0.13 E-score.

In turn, GCGATGCC yielded a binding signal of -0.131 E-score.

For the sequence ATTGGCAA, the binding signal is -0.139 E-score.

In the case of ACACTACG, the binding signal is -0.0248 E-score.

ACTAGAGT gave a binding signal of 0.0935 E-score.

As to ACCCCTAA, the binding signal is -0.152 E-score.

The sequence AGCCCTAA came in with a binding signal of -0.0469 E-score.

GGAACTAC gave a binding signal of 0.254 E-score.

GAAGGTAC gave a binding signal of -0.0392 E-score.

With CCTTCACA, the binding signal was -0.0294 E-score.

In the case of AGAATAGA, the binding signal came to 0.0799 E-score.

With AATCGCAG, the binding signal was 0.00983 E-score.

Take AATCGGAT: the binding signal was -0.00728 E-score.

The sequence CCCCCCGG displayed a binding signal of -0.283 E-score.

AGGACCTA showed a binding signal of 0.0786 E-score.

Consider GTCATCAC, for which the binding signal was -0.236 E-score.

Turning to CATGCCAC, the binding signal is -0.0775 E-score.

CGTCTTTA: the binding signal is -0.0447 E-score.

Turning to CCCTAAGG, the binding signal was -0.308 E-score.

The sequence CGAGATAG registered a binding signal of -0.00362 E-score.

Sequence CACCGCTC had a binding signal of -0.0761 E-score.

GATAAAGA: the binding signal stood at 0.0459 E-score.

With AGTTAACC, the binding signal is -0.00883 E-score.

AAGGCGAG gave a binding signal of -0.307 E-score.

On to AACTTCGG, for which the binding signal is -0.0354 E-score.

The sequence AGTTCGCG came in with a binding signal of -0.00515 E-score.

For the sequence CCTTATAC, the binding signal turned out to be 0.0775 E-score.

Sequence CCTATCTA returned a binding signal of 0.319 E-score.

Sequence CACTGTCA came in with a binding signal of -0.157 E-score.

As for AAAAATAT, the binding signal stood at 0.271 E-score.

ATGTCCGA showed a binding signal of -0.083 E-score.

AATCGCTC had a binding signal of -0.0608 E-score.

Sequence CGGTCCAA displayed a binding signal of -0.143 E-score.

ACGAGGCA registered a binding signal of -0.269 E-score.

Take ATCTAGTC: the binding signal stood at 0.287 E-score.

AATGCCGT gave a binding signal of -0.019 E-score.

On to ACACAACG, for which the binding signal was -0.0102 E-score.

GAGCTAGA: the binding signal was found to be 0.107 E-score.

In turn, GACTATAC came in with a binding signal of 0.082 E-score.

For the sequence CCCATGGC, the binding signal was -0.285 E-score.

With CATGTGGG, the binding signal is -0.0551 E-score.

Take CAATCCAA: the binding signal was determined as 0.104 E-score.

GACGCCTA: the binding signal was -0.0181 E-score.

The sequence ATGGGCGG yielded a binding signal of -0.156 E-score.

GACTAAAA registered a binding signal of 0.144 E-score.

As to ATACGCAC, the binding signal worked out at 0.0715 E-score.

Sequence ACTCTTCT gave a binding signal of -0.11 E-score.

GACACCCA yielded a binding signal of -0.209 E-score.

CGGCGTCA came in with a binding signal of -0.0944 E-score.

With CTGCGTAC, the binding signal is -0.112 E-score.

In the case of CACTCCAC, the binding signal is -0.169 E-score.

The sequence CCGTCTAG showed a binding signal of -0.239 E-score.

The sequence CGTCATAA had a binding signal of -0.0131 E-score.

CCGTACAA: the binding signal was found to be 0.18 E-score.

For CTTAGGGA, the binding signal is -0.141 E-score.

Regarding AAGTCACT, the binding signal is -0.167 E-score.

(Values after publication PMC6212790.)
